Consider 31 variants from the GPR68 mutational scans of Howard et al. (2025).

Sequences and labels used below:
B1: GPR68, Q15743 (parent)
chain: MGNITADNSSMSCTIDHTIHQTLAPVVYVTVLVVGFPANCLSLYFGYLQIKARNELGVYLCNLTVADLFYICSLPFWLQYVLQHDNWSHGDLSCQVCGILLYENIYISVGFLCCISVDRYLAVAHPFRFHQFRTLKAAVGVSVVIWAKELLTSIYFLMHEEVIEDENQHRVCFEHYPIQAWQRAINYYRFLVGFLFPICLLLASYQGILRAVRRSHGTQKSRKDQIQRLVLSTVVIFLACFLPYHVLLLVRSVWEASCDFAKGVFNAYHFSLLLTSFNCVADPVLYCFVSETTHRDLARLRGACLAFLTCSRTGRAREAYPLGAPEASGKSGAQGEEPELLTKLHPAFQTPNSPGSGGFPTGRLA

Scores with a large standard error are left out. Not listed are two conditions whose scores span a narrow range. Names with del lack the residues named; names with ins carry added residues between the positions named. For some assays here: The concentration of ogerin is not given here.

Variants of B1 are the subject of data set [1]. Nature of the data set: cAMP reporter score (Enrich2 score, wild type = 0); higher = more signal; HEK293T, FACS bins.
The variants in data set [2] derive from B1. Nature of the data set: surface expression score (Enrich2 score, wild type = 0); higher = more signal; HEK293T, FACS bins.

For L151_T152insGS, the cAMP reporter score was -2.04 in data set [1] (pH 5.5); -1.01 in data set [1] (pH 6); -2.07 in data set [1] (pH 6, modulator: ogerin); -0.869 in data set [1] (pH 6.5, modulator: ogerin). Also, the surface expression score in data set [2] is -2.7.
For the variant S142_V143insG, the cAMP reporter score is -0.948 in data set [1] (pH 5.5); -0.76 in data set [1] (pH 6, modulator: ogerin); -0.643 in data set [1] (pH 6.5, modulator: ogerin).
Regarding I145_W146insGSG, the cAMP reporter score was -1.3 in data set [1] (pH 5.5); -0.898 in data set [1] (pH 6); -1.38 in data set [1] (pH 6, modulator: ogerin); -1.04 in data set [1] (pH 6.5, modulator: ogerin). The surface expression score in data set [2] was -2.63.
Regarding L150_L151insG, the cAMP reporter score in data set [1] (pH 5.5) is -0.124; in data set [1] (pH 6), -2.02; in data set [1] (pH 6.5, modulator: ogerin) it was -1.49. In data set [2], the surface expression score was -0.83.
Regarding V144F, the cAMP reporter score in data set [1] (pH 5.5) is 0.765; in data set [1] (pH 6), 1.53; in data set [1] (pH 6, modulator: ogerin) it was 0.517; in data set [1] (pH 6.5, modulator: ogerin) it was 2.05. The surface expression score in data set [2] came to 0.863.
For V144G the same measures were 0.914, 0.007, 0.546, 0.513 and 0.323.
Consider V144A, for which the cAMP reporter score in data set [1] (pH 5.5) was -0.011; in data set [1] (pH 6), 0.081; in data set [1] (pH 6, modulator: ogerin), 0.096; in data set [1] (pH 6.5, modulator: ogerin) it was 0.395. Further, the surface expression score in data set [2] was -0.231.
As for V144I, the cAMP reporter score worked out at 0.846 in data set [1] (pH 5.5); 0.382 in data set [1] (pH 6); 0.574 in data set [1] (pH 6, modulator: ogerin); 0.334 in data set [1] (pH 6.5, modulator: ogerin). In data set [2], the surface expression score was found to be 0.8.
On to V144C, for which the cAMP reporter score was -0.751 in data set [1] (pH 5.5); -0.7 in data set [1] (pH 6); -0.719 in data set [1] (pH 6, modulator: ogerin); -0.597 in data set [1] (pH 6.5, modulator: ogerin). In data set [2], the surface expression score is -1.01.
The corresponding values for V144M are -0.349, 0.29, -0.522, -0.086 and -0.259.
The corresponding values for V144Q are -1.3, -1.11, -2.29, -1.33 and -3.19.
The corresponding values for V144L are 0.509, 1.58, 0.5, 1.31 and 0.298.
Consider V144T, for which the cAMP reporter score in data set [1] (pH 5.5) is -0.403; in data set [1] (pH 6), -0.084; in data set [1] (pH 6.5, modulator: ogerin) it was -3.21. Moreover, the surface expression score in data set [2] was -0.967.
Consider V144W, for which the cAMP reporter score was -0.505 in data set [1] (pH 5.5); -0.428 in data set [1] (pH 6); 0.091 in data set [1] (pH 6, modulator: ogerin); -0.22 in data set [1] (pH 6.5, modulator: ogerin).
V144Y: the cAMP reporter score in data set [1] (pH 5.5) was -0.338; in data set [1] (pH 6) it was -1.01; in data set [1] (pH 6, modulator: ogerin), -0.5; in data set [1] (pH 6.5, modulator: ogerin), -0.846. The surface expression score in data set [2] is -2.18.
As for V144H, the cAMP reporter score was -1.34 in data set [1] (pH 5.5); -1.07 in data set [1] (pH 6); -1.96 in data set [1] (pH 6, modulator: ogerin); -1.44 in data set [1] (pH 6.5, modulator: ogerin). Further, the surface expression score in data set [2] is -1.76.
For V144D the same measures were -2.38, -1.2, -1.21, -0.658 and -2.05.
Turning to V144K, the cAMP reporter score in data set [1] (pH 5.5) was -1.07; in data set [1] (pH 6) it was -1.09; in data set [1] (pH 6, modulator: ogerin), -0.764; in data set [1] (pH 6.5, modulator: ogerin), -1.42.
As to V144E, the cAMP reporter score in data set [1] (pH 5.5) is -1.39; in data set [1] (pH 6), -1.36; in data set [1] (pH 6, modulator: ogerin) it was -1.57; in data set [1] (pH 6.5, modulator: ogerin), -0.983. Moreover, the surface expression score in data set [2] is -2.09.
For V144S the same measures were -0.312, 0.097, -0.081, 0.004 and -1.09.
For V143_V144insG the same measures were -1.68, -0.919, -2.21, -1.52 and -2.44.
Turning to A137_A138insG, the cAMP reporter score was -1.98 in data set [1] (pH 5.5); -1.3 in data set [1] (pH 6); -2.26 in data set [1] (pH 6, modulator: ogerin); -0.594 in data set [1] (pH 6.5, modulator: ogerin). In addition, the surface expression score in data set [2] was -2.72.
As for W146_A147insG, the cAMP reporter score in data set [1] (pH 5.5) was -1.19; in data set [1] (pH 6, modulator: ogerin), -0.507.
Take V139_V141del: the cAMP reporter score in data set [1] (pH 5.5) was -1.79; in data set [1] (pH 6) it was -0.457; in data set [1] (pH 6, modulator: ogerin) it was -1.99; in data set [1] (pH 6.5, modulator: ogerin), -1.32. Also, the surface expression score in data set [2] was -2.74.
The corresponding values for G140del are -2.09, -1.42, -1.73, -1.38 and -2.54.
For A147_K148insGS the same measures were -1.43, -1.07, -1.66, -1.29 and -2.55.
For G140_V141insGS, the cAMP reporter score in data set [1] (pH 5.5) was -1.86; in data set [1] (pH 6), -1.24; in data set [1] (pH 6, modulator: ogerin), -1.53; in data set [1] (pH 6.5, modulator: ogerin), -1.45. Moreover, the surface expression score in data set [2] is -2.52.
Turning to G140_S142del, the cAMP reporter score is -1.2 in data set [1] (pH 5.5); -1.07 in data set [1] (pH 6); -1.91 in data set [1] (pH 6, modulator: ogerin); -1.22 in data set [1] (pH 6.5, modulator: ogerin). Further, the surface expression score in data set [2] is -2.55.
For the variant L150_T152del, the cAMP reporter score in data set [1] (pH 5.5) was -1.54; in data set [1] (pH 6), -0.96; in data set [1] (pH 6, modulator: ogerin) it was -1.62; in data set [1] (pH 6.5, modulator: ogerin), -1.31. Also, the surface expression score in data set [2] was -2.04.
The corresponding values for W146del are -1.31, -1.05, -1.44, -1.71 and -2.35.
On to G140_V141insG, for which the cAMP reporter score is -2.07 in data set [1] (pH 5.5); -1.12 in data set [1] (pH 6); -2.15 in data set [1] (pH 6, modulator: ogerin); -1.21 in data set [1] (pH 6.5, modulator: ogerin). Besides, the surface expression score in data set [2] was -2.78.
